The results in this text go back to article PMC5881502 (The Journal of Cell Biology, 2018).

This data set concerns the molecule itself. Put plainly: cross-linking.

B1: BPIA-labeled Hsp42-Y11C/C127A (natural protein)
chain: not shown
modifications: benzophenone-4-iodoacetamide (BPIA) on the cysteine at position 11
For B1, the binding result is listed as “binds”.
